# Assay results as given in the supplement of paper PMC12217912.
# The list shows a part of the results. Sequences were assembled here from the parent chain. Inactive controls read about 0.05.
# B1: TEV protease; numbered along this chain (parent)
# chain: MGESLFKGPRDYNPISSSICHLTNESDGHTTSLYGIGFGPFIITNKHLFRRNNGTLVVQSLHGVFKVKDTTTLQQHLVDGRDMIIIRMPKDFPPFPQKLKFREPQREERICLVTTNFQTKSMSSMVSDTSCTFPSGDGIFWKHWIQTKDGQCGSPLVSTRDGFIVGIHSASNFTNTNNYFTSVPKNFMELLTNQEAQQWVSGWRLNADSVLWGGHKVFMVKPEEPFQPVKEATQL
# Variants of: B1
# Assay: raw area under fraction-flipped curve 0-4 h after induction (AUC4h, not background-subtracted), DNA-recorder readout of cleavage of the substrate (dimensionless); higher = more cleavage of the substrate by the protease variant
# Conditions: temperature: 34 °C; time window: 0-4 h after rhamnose induction
# Procedure: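 In vivo DNA recorder in E. coli TOP10(DE3) ΔrhaA at 34 °C. Each TEVp single-site mutant (parent TEVp 0) is paired with a single-site variant of the 7-mer TEVs (canonical ENLYFQ|S). The substrate sits between flexible linkers in a Bxb1-sfGFP-TEVs-SsrA fusion, so cleavage stabilises Bxb1 and speeds flipping of a recombination array, read by NGS. The value is the raw area under the fraction-flipped curve over 0-4 h after rhamnose induction (AUC4h), with ≥20 reads per time point. It is not background-subtracted; inactive controls average about 0.047.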
# 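Note: Bxb1 expression induced with 0.2% (w/v) L-rhamnose at OD600 near 0.5, cultures sampled hourly, flipped fraction per protease–substrate barcode pair counted by paired-end Illumina sequencing.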
Variant,area with substrate ENLAFQS,area with substrate ENLCFQS,area with substrate ENLDFQS,area with substrate ENLFFQS,area with substrate ENLGFQS,area with substrate ENLHFQS,area with substrate ENLIFQS,area with substrate ENLKFQS,area with substrate ENLLFQS,area with substrate ENLNFQS,area with substrate ENLPFQS,area with substrate ENLQFQS,area with substrate ENLRFQS,area with substrate ENLSFQS,area with substrate ENLVFQS,area with substrate ENLWFQS,area with substrate ENLEFQS,area with substrate ENLTFQS,area with substrate ENLMFQS
L22P,0.0463,0.0536,0.0549,0.0491,0.0428,0.0458,0.0473,0.0452,0.0542,0.0219,0.0499,0.0467,0.0466,0.0491,0.0528,0.0375,–,–,–
L22I,0.044,0.079,0.0629,0.0987,–,–,0.094,0.0474,0.0858,0.0644,0.0745,0.0713,0.0703,0.0659,0.083,0.0676,0.0633,0.0719,–
I36M,0.0652,0.067,0.0693,0.0981,0.0708,0.0607,0.0753,0.0623,0.0701,0.0644,–,–,0.0689,–,–,0.0945,0.0448,–,0.0742
I36S,0.0453,0.0614,0.0676,0.0673,–,0.0677,0.0486,0.055,0.0633,0.0546,0.0439,0.0587,–,0.0536,–,0.055,0.0536,0.0654,–
C20Q,0.0346,–,0.0531,0.046,–,–,–,0.0676,0.0474,0.0551,–,0.0434,–,0.0365,0.0743,–,0.069,–,–
C20N,0.0553,–,0.0528,0.0579,0.0494,0.0525,0.0477,0.073,0.0399,0.0515,–,0.0475,0.0393,0.0433,0.0472,0.0616,0.0482,–,–
G28I,0.0937,0.0597,0.0505,0.0654,–,0.0624,–,0.068,0.0766,0.0696,0.0564,0.059,0.0587,0.0637,0.0722,–,0.058,0.0681,–
P14M,0.0697,0.0431,0.0557,0.0884,0.0595,0.0656,0.0709,0.0934,0.0967,0.0605,0.0609,0.0761,0.0904,0.0648,0.0745,0.0584,0.0474,–,–
P14T,0.0253,–,0.0678,0.0983,–,0.0626,0.0817,0.0815,0.0835,0.0525,–,0.077,0.0733,0.0751,–,0.0782,0.0671,–,0.0462
P14A,0.0706,–,0.0573,0.0805,0.0672,0.0571,0.0954,0.0964,0.0757,0.0621,0.0524,0.0599,0.0586,0.0545,–,0.0708,0.0705,0.0537,–
P14Y,0.0589,–,0.0668,0.0727,–,0.0729,0.0772,0.0709,0.0535,0.0591,0.0481,0.0646,–,–,0.0839,0.0652,0.0836,–,–
H21Q,0.0504,–,0.0709,0.0814,0.0623,0.0701,0.0864,0.0798,0.0774,0.0603,0.0435,–,–,0.0625,–,0.0519,–,0.0649,0.0917
H21A,0.0594,–,0.0638,0.0763,0.0655,0.0689,0.0572,0.0998,–,0.0565,0.0681,0.0698,–,0.052,0.0723,0.0707,0.0638,0.0607,0.0748
H21C,0.0636,0.0571,0.0711,0.0799,–,0.0633,0.0906,0.0765,–,0.0701,–,0.064,0.0698,–,0.067,0.0713,–,–,–
D27C,0.0644,0.0982,0.0605,0.0684,–,0.069,–,0.0795,0.0707,0.0558,0.041,0.0877,0.0829,0.0511,0.091,0.0636,0.0568,–,–
D27W,0.0502,0.0653,0.0561,0.0978,0.0671,0.0714,–,0.0616,0.0604,0.0703,0.0546,–,–,0.0611,–,0.0539,0.0659,–,–
T23L,0.0555,–,0.0562,0.114,0.0663,0.0854,–,0.0728,0.0748,0.0671,0.0583,–,0.0685,0.0615,–,0.0632,0.0669,–,0.0682
T23C,0.0623,–,0.0599,0.0891,–,0.0614,0.0831,0.0762,0.061,0.0811,0.0593,0.0728,0.0789,0.0773,0.0931,0.0781,0.0621,–,–
T23N,0.0626,–,0.0638,0.0698,–,0.0639,0.0793,0.0798,–,0.0683,0.0531,0.078,0.0834,0.0408,–,0.0724,–,–,0.0758
T23Y,0.0592,0.0696,0.0677,0.0783,–,0.0614,0.0867,–,–,–,0.0617,0.0711,0.0693,0.064,–,–,0.0714,0.0752,–
E3H,0.0628,0.0746,0.0754,0.0775,0.0709,0.0619,–,0.0842,0.0961,0.0647,0.056,0.0631,–,0.0754,0.0467,–,0.0648,0.0834,–
E3M,0.0756,–,0.0519,0.102,–,0.0614,0.122,0.0718,0.0684,0.0563,0.0615,0.077,0.0717,0.0629,–,0.0629,0.0531,–,–
I15Q,0.0519,0.0702,0.061,0.091,0.0681,0.0639,0.0704,0.0798,0.0661,0.0602,0.0646,–,0.0598,0.0636,0.0716,–,–,–,–
I15D,0.0577,–,0.0552,0.0645,0.0519,0.0556,0.061,0.0716,–,0.0542,0.0571,0.0423,0.0618,0.0641,0.0587,0.0567,0.0413,–,0.0485
